Source: PubChem BioAssay AID485294 (National Center for Advancing Translational Sciences (NCATS), 2010)
Values joined by “and” are separate entries in the source; they are usually repeats but may differ in a detail not shown here. Identical values can stand only once. Out of some 370,000 compounds screened, about 150 (0.041%) were called active. This list was built around the results that the source calls inconclusive (neither active nor inactive); the mix of calls is not that of the screen. Calls come from the whole dose curve; as a rule, active = well fitted inhibition curve with a large enough effect; inconclusive = small, poorly fitted or top-dose-only effect; inactive = flat fitted curve, though single readings scatter. Potencies of inconclusive entries are doubtful fits and often do not repeat.

target: Beta-lactamase (Escherichia coli (strain K12)) (UniProt P00811); experiment: qHTS Inhibitors of AmpC Beta-Lactamase (assay with detergent); details: AmpC hydrolysis of nitrocefin, absorbance 480 nm, 0.01% Triton; series mostly up to 114 µM; note: nearly all actives have a fitted effect of over 25% in size
Chain of UniProt P00811 (P00811 whole entry, looked up): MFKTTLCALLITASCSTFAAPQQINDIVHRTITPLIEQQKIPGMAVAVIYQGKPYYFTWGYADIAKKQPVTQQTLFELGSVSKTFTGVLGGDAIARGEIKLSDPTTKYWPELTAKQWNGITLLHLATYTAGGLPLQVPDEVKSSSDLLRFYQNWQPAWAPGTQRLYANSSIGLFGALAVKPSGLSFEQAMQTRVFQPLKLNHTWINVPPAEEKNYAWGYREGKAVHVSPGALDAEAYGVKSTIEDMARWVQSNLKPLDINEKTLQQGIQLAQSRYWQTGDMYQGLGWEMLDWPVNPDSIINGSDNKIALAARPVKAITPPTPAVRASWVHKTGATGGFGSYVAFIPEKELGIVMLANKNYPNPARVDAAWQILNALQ
Method in brief: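 20 mM phosphate pH 7.0 + 0.01% (detergent screen) or 0.0001% Triton X-100; 5.3 nM AmpC reagent; cpd preinc 15 min RT; nitrocefin (800 uM stock) to start; A480 q20 s × 4 min; Activity was normalised to no-enzyme and no-compound control wells.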
Potency is the fitted concentration of half-maximal effect; tags give direction and shape of the fitted curve.

SMILES | Potency
O=C(NNC(=S)Nc1ccccc1)c1ccco1 | inconclusive: 6.31 µM [inhibitor, full curve, poor fit]
CCn1c(=O)c2cc(C(=O)NCCc3ccc(OC)c(OC)c3)sc2c2ccccc21 | inactive
O=C1CCCC(=O)N1c1ccc(Oc2ccc(Cl)cc2)cc1 | inconclusive: 63.1 µM [inhibitor, partial curve, poor fit]
CC(C)(C)OC(=O)N1CCC(c2c(C(=O)NCC3CCN(C4CCCC4)C3)cnn2-c2ccc(F)cc2)CC1 (stereo unspecified) | inactive
Cc1cc(/C=C2\SC(=Nc3ccccc3)NC2=O)c(C)n1-c1ccc(S(N)(=O)=O)cc1 | inactive
CCOP(=O)(c1ccccc1)C1(C#N)CCCC1 (stereo unspecified) | inconclusive: 44.7 µM [inhibitor, partial curve, poor fit]
C/C(N)=C(/C#N)C(=O)COC(=O)c1cccc2ccccc12 | inconclusive: 0.708 µM [inhibitor, full curve]
N#C/C(=N\O)c1nc(-c2ccccc2)cs1 | inconclusive: 4.47 µM [inhibitor, full curve, poor fit] and inconclusive: 224 nM [inhibitor, full curve, poor fit]
CCOC(=O)Cc1csc(NC(=S)NC(=O)c2ccc([N+](=O)[O-])cc2)n1 | inconclusive: 70.8 µM [inhibitor, partial curve, poor fit]
CCN(CC(=O)Nc1ccc(NC(C)=O)cc1)C(=O)c1cc(CN2C(=O)c3ccccc3C2=O)ccc1OC | inconclusive: 11.2 µM [inhibitor, partial curve, poor fit]
C/C(=N\N=c1/sc2ccccc2n1C)c1ccc(N2CCOCC2)cc1 | inconclusive: 0.631 µM [inhibitor, full curve, poor fit]
CCOc1ccc(CCNC(=O)C2CCCN(c3nn4c(=O)cc(C)nc4s3)C2)cc1OCC (stereo unspecified) | inconclusive: 4.47 µM [inhibitor, single point]
CC(C(=O)Nc1ncc2c(n1)CC(C)(C)CC2=O)N1C(=O)c2ccccc2C1=O (stereo unspecified) | inconclusive: 1.41 µM [inhibitor, full curve, poor fit]
O=C(Nc1ccccn1)[C@@H]1CCC(=O)N1C(=O)OCc1ccccc1 | inconclusive: 126 µM [inhibitor, partial curve, poor fit]
CC(C)c1ccc(C2NC(=O)c3ccccc3O2)cc1 (stereo unspecified) | inactive
CC(Cc1cccs1)NCc1ccc(Cl)cc1 (stereo unspecified) | inconclusive: 10 µM [inhibitor, partial curve, poor fit]
Cc1ccc(C)c(OCCC(=O)OCC(=O)NNC(=O)c2ccccc2)c1 | inconclusive: 31.6 µM [inhibitor, partial curve]
O=C(NCc1cccs1)c1nn2cccnc2c1Cl | inconclusive: 56.2 µM [inhibitor, partial curve]
O=C(NNC(=O)c1ccccc1O)c1ccc(Br)cc1 | inconclusive: 0.631 µM [inhibitor, full curve]
COc1ccc(CCNCc2ccc(OCc3ccc(Cl)nc3)c(OC)c2)cc1OC | inactive
CCOC(=O)CN(C)Cc1c[nH]c2ccccc12 | inconclusive: 2 µM [inhibitor, full curve]
CC12CN3CN(C1)CC(c1ccccc1)(C3)C2=O | inconclusive: 50.1 µM [inhibitor, partial curve, poor fit]

SMILES | Potency
COc1ccccc1N1CCN(C(=O)c2ccco2)CC1 | inactive
CC(=O)Nc1cccc(C(=O)OCC(=O)N(c2ccccc2)C2CCS(=O)(=O)C2)c1 (stereo unspecified) | inconclusive: 79.4 µM [inhibitor, partial curve, poor fit]
COCCn1c(=O)c2cc3c(=O)n(CCOC)c(=O)c3cc2c1=O | inconclusive: 20 µM [inhibitor, full curve, poor fit]
CCOc1ccccc1NC(=O)Cn1nnc(C(=O)NCCc2ccc(OCC)c(OCC)c2)c1N | inconclusive: 20 µM [inhibitor, single point]
COc1ccc(C(=O)N2CCN(CCc3ccccn3)CC2)cc1 | inconclusive: 0.708 µM [inhibitor, full curve, poor fit]
COc1ccc2[nH]c(C)c(CCNCc3cccnc3)c2c1 | inconclusive: 28.2 µM [inhibitor, full curve, poor fit]
COc1ccc(-c2c(C(F)(F)F)oc3c(CN4CCN(C)CC4)c(O)ccc3c2=O)cc1 | inconclusive: 14.1 µM [inhibitor, full curve, poor fit]
Cc1cccc(C)c1NC(=O)Cn1c(=O)n(CCC(=O)NCc2ccc3c(c2)OCO3)c(=O)c2sccc21 | inactive
COc1ccc(N2C(=O)N3[C@H](c4ccc(Cl)cc4)[C@@H]4C(=O)N(C5CCCCC5)C(=O)[C@@H]4[C@]3(Cc3ccc(Cl)cc3)C2=O)cc1 | inconclusive: 0.355 µM [inhibitor, full curve, poor fit]
O=C1NC(=Nc2ccccc2)/C(=C/c2ccco2)S1 | inconclusive: 1.78 µM [inhibitor, full curve, poor fit]
CCN(CC)CCn1c(N)nc2ccccc21 | inactive
CC1CCCN(C(=O)Cc2cn(Cc3cccc(Cl)c3)c3ccccc23)C1 (stereo unspecified) | inconclusive: 44.7 µM [inhibitor, partial curve, poor fit]
CCCn1c(CNc2ccccc2O)nc2ccccc21 | inconclusive: 1.78 µM [inhibitor, full curve, poor fit]
Cc1ccc(C(=O)NCC(=O)OCc2c(F)cccc2Cl)cc1 | inconclusive: 44.7 µM [inhibitor, full curve, poor fit]
CCn1c(=O)c2c3c(sc2n(C)c1=O)CCC3 | inactive
COc1ccc(-c2ncncc2-c2csc(C)n2)c(O)c1 | inconclusive: 79.4 µM [inhibitor, partial curve]
Cc1ccc(C(C(=O)NC2CCCCC2)N(Cc2ccco2)C(=O)Cn2cnc3ccccc32)cc1 (stereo unspecified) | inactive
CCOP(=O)(OCC)/C(C#N)=C/c1ccoc1 | inactive
CCCCn1c(C(C)NC(=O)CC)nc2ccccc21 (stereo unspecified) | inconclusive: 7.08 µM [inhibitor, full curve]
Cc1cccc(C)c1OCC(=O)N/N=C/c1cc2c(cc1[N+](=O)[O-])OCO2 | inactive
COc1ccc(-c2nnc(SCc3nnc(-c4ccccc4)o3)n2C)cc1OC | inconclusive: 79.4 µM [inhibitor, partial curve, poor fit]
Cc1ccccc1NC(=O)C1CCN(S(=O)(=O)c2cccc3nonc23)CC1 | inconclusive: 2 µM [inhibitor, full curve, poor fit]

SMILES | Potency
COc1ccccc1CN1CC(C(=O)NCCCc2ccc(F)cc2)CCC1=O (stereo unspecified) | inactive
CNC(=O)c1c(NC(=O)CCS(=O)(=O)c2ccccc2)sc(C)c1C | inconclusive: 44.7 µM [inhibitor, partial curve, poor fit]
Cc1cccc(C)c1NC(=O)CN(C)C(=O)CC1Sc2ccccc2NC1=O (stereo unspecified) | inconclusive: 0.631 µM [inhibitor, full curve, poor fit]
CCN1C(=O)/C(=C\c2cccn2-c2ccc([N+](=O)[O-])cc2)N(CC)C1=S | inconclusive: 7.08 µM [inhibitor, full curve]
CC(C)(O)C#Cc1ccc(C(=O)NCc2cccs2)s1 | inactive
CC1=NN(c2ccccc2)C(=O)/C1=C\C=C1\N(C)c2ccccc2C1(C)C | inconclusive: 2.82 µM [inhibitor, full curve, poor fit]
Cc1cc(C)cc(NC(=O)c2cc(S(=O)(=O)N3CCCCC3)c[nH]2)c1 | inactive
CSC1=NC(NCCCO)c2c(sc3c2CC(C)(C)OC3)N1 (stereo unspecified) | inconclusive: 1 µM [inhibitor, full curve, poor fit]
CN1CCN(C(=O)c2cccc(-c3cc(O)c4ncccc4c3)c2)CC1 | inconclusive: 0.316 µM [inhibitor, full curve, poor fit]
Cc1ccc(CSc2nnc(C)c(=O)n2N)cc1 | inconclusive: 22.4 µM [inhibitor, single point]
O=C(NC(=S)N1CCCCC1CO)C12CC3CC(CC(C3)C1)C2 (stereo unspecified) | inconclusive: 56.2 µM [inhibitor, partial curve]
O=C(/C=C/Nc1ccccc1F)c1ccc(Br)cc1 | inconclusive: 2.51 µM [inhibitor, full curve]
Cc1cc(C(C)(C)C)cc(S(=O)(=O)Nc2cccc(C(=O)O)c2)c1C | inconclusive: 3.98 µM [inhibitor, full curve, poor fit]
Cc1ccc(C=Nc2ccc(N(C)C)cc2)o1 | inconclusive: 8.91 µM [inhibitor, full curve, poor fit]
CCOc1ccc(NC(=O)c2cc(S(=O)(=O)N3CCC(C)CC3)cn2C)cc1 | inactive
CN1C(=O)N(CC(=O)Nc2ccc(C(F)(F)F)cc2)C(=O)C12CCCCC2 | inconclusive: 2.82 µM [inhibitor, full curve, poor fit]
Cc1ccc(NCc2ccncc2)c(Br)c1 | inactive
CCCCCCOc1cccc(N)c1 | inconclusive: 89.1 µM [inhibitor, partial curve, poor fit]
CN(C)C(=O)CSc1nnc(CCCCCNC(=O)OC(C)(C)C)o1 | inconclusive: 44.7 µM [inhibitor, partial curve, poor fit]
C=CCOc1ccc(/C=C/C(=O)OCC(=O)NCCc2ccccc2)cc1 | inconclusive: 89.1 µM [inhibitor, single point]
Cc1c(Cc2ccc3c(c2)OCO3)sc(NC(=O)c2cccc3ccccc23)c1C(N)=O | inactive
Cc1sc2ncn(CC(=O)N3CCN(c4ccccc4F)CC3)c(=O)c2c1S(=O)(=O)N1CCOCC1 | inconclusive: 112 µM [inhibitor, partial curve, poor fit]
